In ChEMBL document CHEMBL5606460, “ASAP - DENV-2 NS2B-NS3 protease fluorescence single point” (2024):
Hit rate of the full screen: of about 2,000 compounds, about 110 (5.5%) showed an effect of 50% or more. The list shows a part of the results.

Target: Genome polyprotein (dengue virus type 2) (UniProt P29990)
[1] = Thailand/16681/1984, Concentration 25.0 uM, Number of replicates 1.0

Q: How did the inhibition [1] turn out when Cc1nc(Cl)c(NC(=O)C2CCN(c3ccc(C=O)cc3)CC2)c(Cl)n1 was run?
A: 12.8%

Q: How did the inhibition [1] turn out when COCCCN1CCN(C(=O)C2CCN(c3ccc(C=O)cc3)CC2)CC1 was run?
A: 11.8%

Q: How did the inhibition (Thailand/16681/1984, Concentration 49.5 uM, Number of replicates 2.0, Standard deviation 0.08725206861246473 %) turn out when COc1cc(Cc2cccc3[nH]nnc23)nc(N2CCNCC2)n1 was run?
A: 2.28%

Q: What about the inhibition (Thailand/16681/1984, Concentration 99.01 uM, Number of replicates 2.0, Standard deviation 0.07153584597754044 %) of the same compound?
A: 3.03%

Q: What about the inhibition (Thailand/16681/1984, Concentration 198.0 uM, Number of replicates 2.0, Standard deviation 0.0010836797689121073 %) of the same compound?
A: 5.35%

Q: Which results are given for CNC(=O)c1ccncc1NS(=O)(=O)c1ccc(Oc2ccccc2Cl)cc1?
A: inhibition (Thailand/16681/1984, Concentration 49.5 uM, Number of replicates 2.0, Standard deviation 3.023334340601001 %): -2.48%; inhibition (Thailand/16681/1984, Concentration 99.01 uM, Number of replicates 2.0, Standard deviation 3.20078374174672 %): -0.672%; inhibition (Thailand/16681/1984, Concentration 198.0 uM, Number of replicates 2.0, Standard deviation 2.339843576600017 %): 2.95%

Q: How did the inhibition [1] turn out when O=Cc1ccc(N2CCC(C(=O)N3CCCC[C@H]3C(F)(F)F)CC2)cc1 was run?
A: 16.8%

Q: For Clc1cc(Cl)c2cccnc2c1, which inhibition (Thailand/16681/1984, Concentration 49.95 uM, Number of replicates 2.0, Standard deviation 5.517273159530972 %) is on record?
A: -6.96%

Q: And the inhibition (Thailand/16681/1984, Concentration 99.9 uM, Number of replicates 2.0, Standard deviation 6.335774061331812 %)?
A: -7.46%

Q: For NCc1ccc(C[C@H](NC(=O)c2ccccc2)C(=O)N2CCCCC2)cc1, which inhibition (Thailand/16681/1984, Concentration 49.5 uM, Number of replicates 2.0, Standard deviation 0.17896696164662676 %) is on record?
A: 0.311%

Q: What about the inhibition (Thailand/16681/1984, Concentration 99.01 uM, Number of replicates 2.0, Standard deviation 0.22162768560798987 %) of the same compound?
A: 1.81%

Q: And the inhibition (Thailand/16681/1984, Concentration 198.0 uM, Number of replicates 2.0, Standard deviation 1.4421407385459897 %)?
A: 4.23%

Q: With O=Cc1ccc(N2CCC(C(=O)NCc3ccc(Br)s3)CC2)cc1 as the compound, how does the inhibition [1] read?
A: 12.4%

Q: What does the source list for Cc1cc(CO)c2cccc(CC(=O)Nc3cc(C)on3)c2n1?
A: inhibition (Thailand/16681/1984, Concentration 49.95 uM, Number of replicates 2.0, Standard deviation 0.056769444720657654 %): 98.7%; inhibition (Thailand/16681/1984, Concentration 99.9 uM, Number of replicates 2.0, Standard deviation 0.01177144620169866 %): 99.4%

Q: O=Cc1ccc(N2CCC(C(=O)N3CCN(c4ccccc4[N+](=O)[O-])CC3)CC2)cc1 was tested. Which inhibition [1] did it give?
A: 13.5%

Q: How did the inhibition [1] turn out when O=Cc1ccc(N2CCC(C(=O)Nc3cccc(C(F)(F)F)n3)CC2)cc1 was run?
A: 13.5%

Q: O=Cc1ccc(N2CCC(C(=O)NCCc3csc(-c4ccncc4)n3)CC2)cc1 was tested. Which inhibition [1] did it give?
A: 14.3%

Q: What does the source list for N#Cc1ccc(C[C@H](NC(=O)c2ccccc2)C(=O)NCCCCNC(=N)N)cc1?
A: inhibition (Thailand/16681/1984, Concentration 49.5 uM, Number of replicates 2.0, Standard deviation 0.6326801671633419 %): -5.12%; inhibition (Thailand/16681/1984, Concentration 99.01 uM, Number of replicates 2.0, Standard deviation 1.2914777248245206 %): -4.14%; inhibition (Thailand/16681/1984, Concentration 198.0 uM, Number of replicates 2.0, Standard deviation 0.45252363179091937 %): -1.98%

Q: For O=Cc1ccc(N2CCC(C(=O)N3CCC(Cc4ccc(Br)cc4)CC3)CC2)cc1, which inhibition [1] is on record?
A: -3.91%

Q: With O=S(=O)(Nc1ccc(Cl)cc1)c1ccc(Oc2ccccc2Cl)cc1 as the compound, how does the inhibition (Thailand/16681/1984, Concentration 49.5 uM, Number of replicates 2.0, Standard deviation 0.04775136783847868 %) read?
A: 12.2%

Q: And the inhibition (Thailand/16681/1984, Concentration 99.01 uM, Number of replicates 2.0, Standard deviation 0.32853232391890236 %)?
A: 22.7%

Q: What about the inhibition (Thailand/16681/1984, Concentration 198.0 uM, Number of replicates 2.0, Standard deviation 1.060565762839157 %) of the same compound?
A: 44.5%

Q: What does the source list for Cc1cnccc1NC(=O)c1cccc(-n2cnnn2)c1?
A: inhibition (Thailand/16681/1984, Concentration 49.5 uM, Number of replicates 2.0, Standard deviation 0.2503352923405826 %): -0.163%; inhibition (Thailand/16681/1984, Concentration 99.01 uM, Number of replicates 2.0, Standard deviation 0.8335238140461166 %): 0.5%; inhibition (Thailand/16681/1984, Concentration 198.0 uM, Number of replicates 2.0, Standard deviation 0.8631931670807014 %): 0.333%

Q: Cc1cnccc1NC(=O)c1c(S(C)(=O)=O)cnn1C was tested. Which inhibition (Thailand/16681/1984, Concentration 49.5 uM, Number of replicates 2.0, Standard deviation 2.112040450454514 %) did it give?
A: -2.87%

Q: What about the inhibition (Thailand/16681/1984, Concentration 99.01 uM, Number of replicates 2.0, Standard deviation 0.7412991706842835 %) of the same compound?
A: -3.65%

Q: What about the inhibition (Thailand/16681/1984, Concentration 198.0 uM, Number of replicates 2.0, Standard deviation 0.3762916153649011 %) of the same compound?
A: -2.33%

Q: How did the inhibition (Thailand/16681/1984, Concentration 49.95 uM, Number of replicates 2.0, Standard deviation 0.842601818478522 %) turn out when CC(=O)N[C@@H](CCCCN)C(=O)Nc1ccccc1Cc1cccc2c(CO)cc(C)nc12 was run?
A: -5.54%

Q: What about the inhibition (Thailand/16681/1984, Concentration 99.9 uM, Number of replicates 2.0, Standard deviation 0.16339684106206548 %) of the same compound?
A: 1.8%

Q: Which inhibition (Thailand/16681/1984, Concentration 49.95 uM, Number of replicates 2.0, Standard deviation 0.42616060945996115 %) does the source give for Cc1cc(CO)c2cccc(Cc3cccc(C(=O)N4CCCNCC4)c3)c2n1 here?
A: -5.55%

Q: And the inhibition (Thailand/16681/1984, Concentration 99.9 uM, Number of replicates 2.0, Standard deviation 0.4513131743016865 %)?
A: 6.88%

Q: With Cc1cnccc1NC(=O)c1nn(C)c2c1CCCC2 as the compound, how does the inhibition (Thailand/16681/1984, Concentration 49.5 uM, Number of replicates 2.0, Standard deviation 2.6774115947837758 %) read?
A: 5.71%

Q: What about the inhibition (Thailand/16681/1984, Concentration 99.01 uM, Number of replicates 2.0, Standard deviation 2.8074062997576847 %) of the same compound?
A: 3.98%

Q: What about the inhibition (Thailand/16681/1984, Concentration 198.0 uM, Number of replicates 2.0, Standard deviation 1.1102521767864677 %) of the same compound?
A: 3.95%

Q: Which inhibition [1] does the source give for CC1(C)C[C@]1(CNC(=O)C1CCN(c2ccc(C=O)cc2)CC1)c1ccccc1 here?
A: 12.2%

Q: With CNC(=O)c1cccc(C(=O)Nc2ccncc2C)n1 as the compound, how does the inhibition (Thailand/16681/1984, Concentration 49.5 uM, Number of replicates 2.0, Standard deviation 0.4660664257418339 %) read?
A: -1.53%

Q: What about the inhibition (Thailand/16681/1984, Concentration 99.01 uM, Number of replicates 2.0, Standard deviation 1.0947141510270475 %) of the same compound?
A: -0.505%

Q: What about the inhibition (Thailand/16681/1984, Concentration 198.0 uM, Number of replicates 2.0, Standard deviation 0.10892945720707287 %) of the same compound?
A: 0.74%
